{"source": "the BET-seq Pho4 binding data (Le et al. 2018)", "note": "The list shows a part of the results. These are noisy estimates, calculated here from bound and input reads.", "data": [{"biological_target": "T1, Pho4 (S. cerevisiae) (UniProt P07270)", "T1 sequence": "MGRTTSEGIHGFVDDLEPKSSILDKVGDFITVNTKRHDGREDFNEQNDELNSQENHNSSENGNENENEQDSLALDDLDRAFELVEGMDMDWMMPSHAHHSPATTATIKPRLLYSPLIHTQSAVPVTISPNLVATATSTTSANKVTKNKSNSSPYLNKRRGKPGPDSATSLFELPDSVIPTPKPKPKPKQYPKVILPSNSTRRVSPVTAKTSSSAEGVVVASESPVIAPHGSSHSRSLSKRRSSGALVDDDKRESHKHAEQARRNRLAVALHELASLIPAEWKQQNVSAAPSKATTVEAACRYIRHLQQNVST", "assay": "relative binding free energy (BET-seq); higher = weaker binding", "conditions": "reference: library average", "units": {"relative binding free energy": "kcal/mol"}, "values": [{"sequence": "CGGTGCACGTGTGTGG", "relative binding free energy": 0.05}, {"sequence": "GGGTGCACGTGCTTTA", "relative binding free energy": -0.02}, {"sequence": "GTGACCACGTGTGGGG", "relative binding free energy": -0.02}, {"sequence": "CTAAACACGTGGTTGT", "relative binding free energy": -0.11}, {"sequence": "TATTTCACGTGAGTCT", "relative binding free energy": 0.37}, {"sequence": "CAAAGCACGTGAGGTT", "relative binding free energy": 0.29}, {"sequence": "TTGAACACGTGTTGCG", "relative binding free energy": -0.12}, {"sequence": "AGCAACACGTGGGGGC", "relative binding free energy": -0.08}, {"sequence": "TCGGGCACGTGGCTGA", "relative binding free energy": -0.08}, {"sequence": "CTTCGCACGTGCGGGT", "relative binding free energy": -0.03}, {"sequence": "TTGATCACGTGTGATT", "relative binding free energy": 0.09}, {"sequence": "TTCAGCACGTGTTGGC", "relative binding free energy": 0.17}, {"sequence": "TGGGGCACGTGATGGC", "relative binding free energy": 0.05}, {"sequence": "GTTTACACGTGGTCAG", "relative binding free energy": 0.06}, {"sequence": "CGGCCCACGTGTGGGT", "relative binding free energy": -0.04}, {"sequence": "TAGAGCACGTGCGAGT", "relative binding free energy": -0.13}, {"sequence": "TTATACACGTGTGTGT", "relative binding free energy": 0.03}, {"sequence": "GGGGACACGTGGGTTC", "relative binding free energy": -0.05}, {"sequence": "TATGGCACGTGGGTTG", "relative binding free energy": -0.17}, {"sequence": "TGTCTCACGTGTGTAA", "relative binding free energy": 0.26}, {"sequence": "AAGGGCACGTGTGGGT", "relative binding free energy": -0.15}, {"sequence": "GGCTGCACGTGGGGCT", "relative binding free energy": -0.12}, {"sequence": "TAAGCCACGTGGTTGT", "relative binding free energy": -0.06}, {"sequence": "GTTGGCACGTGAACGT", "relative binding free energy": 0.2}, {"sequence": "AGTTACACGTGTGCTT", "relative binding free energy": 0.07}, {"sequence": "ACGTGCACGTGTAATG", "relative binding free energy": -0.06}, {"sequence": "TGAAGCACGTGCGGTA", "relative binding free energy": -0.06}, {"sequence": "GCAGGCACGTGTGATT", "relative binding free energy": 0.03}, {"sequence": "GTGTACACGTGTGACG", "relative binding free energy": 0.11}, {"sequence": "TTCGTCACGTGGGTGT", "relative binding free energy": -0.02}, {"sequence": "TGTAGCACGTGGGTAT", "relative binding free energy": -0.14}, {"sequence": "AGATTCACGTGTTTAG", "relative binding free energy": 0.21}, {"sequence": "AGGGGCACGTGACCGT", "relative binding free energy": -0.03}, {"sequence": "CGAGTCACGTGGATTT", "relative binding free energy": 0.19}, {"sequence": "TGAGGCACGTGTACTG", "relative binding free energy": -0.17}, {"sequence": "AAGGACACGTGCTGGT", "relative binding free energy": -0.08}, {"sequence": "AGAATCACGTGGTGTG", "relative binding free energy": 0.05}, {"sequence": "GAGCGCACGTGGGGGC", "relative binding free energy": -0.22}, {"sequence": "ATATTCACGTGTGGTT", "relative binding free energy": 0.25}, {"sequence": "AGTCACACGTGGGGTA", "relative binding free energy": -0.17}, {"sequence": "ATGTACACGTGTTCAT", "relative binding free energy": 0.02}, {"sequence": "GAGTGCACGTGATGAT", "relative binding free energy": 0.37}, {"sequence": "TTCGGCACGTGACTGG", "relative binding free energy": 0.14}, {"sequence": "AATCACACGTGTGGGT", "relative binding free energy": 0.07}, {"sequence": "AATCTCACGTGTTGGG", "relative binding free energy": 0.17}, {"sequence": "GTTTTCACGTGCAGGT", "relative binding free energy": 0.39}, {"sequence": "TAATTCACGTGGTGCT", "relative binding free energy": 0.24}, {"sequence": "TATTGCACGTGAAGAG", "relative binding free energy": 0.11}, {"sequence": "GGAGGCACGTGTATAA", "relative binding free energy": -0.04}, {"sequence": "TGATTCACGTGGTCTT", "relative binding free energy": 0.18}, {"sequence": "TTGGGCACGTGATTCA", "relative binding free energy": -0.09}, {"sequence": "TTTGGCACGTGCTTGG", "relative binding free energy": -0.04}, {"sequence": "TGTGACACGTGGTAGG", "relative binding free energy": -0.03}, {"sequence": "ACATTCACGTGAGGGT", "relative binding free energy": 0.29}, {"sequence": "GCTTTCACGTGTCTTG", "relative binding free energy": 0.35}, {"sequence": "GGGTGCACGTGCTATG", "relative binding free energy": -0.05}, {"sequence": "GTATACACGTGGTATC", "relative binding free energy": 0.17}, {"sequence": "GCGTGCACGTGGGGCA", "relative binding free energy": -0.24}, {"sequence": "GGTTTCACGTGTTGAA", "relative binding free energy": 0.55}, {"sequence": "GCGGGCACGTGGGGCC", "relative binding free energy": -0.21}, {"sequence": "CATTTCACGTGGTGTC", "relative binding free energy": 0.13}, {"sequence": "GGGTGCACGTGCGTAG", "relative binding free energy": 0}, {"sequence": "GCTTACACGTGCGTGG", "relative binding free energy": 0.11}, {"sequence": "TTCTTCACGTGTTCTT", "relative binding free energy": 0.34}, {"sequence": "TTGATCACGTGTTTAC", "relative binding free energy": 0.05}, {"sequence": "TCGGGCACGTGTGTGA", "relative binding free energy": 0}, {"sequence": "ATAATCACGTGAAATG", "relative binding free energy": 0.43}, {"sequence": "GAACGCACGTGTAGGT", "relative binding free energy": 0.16}, {"sequence": "TGAGGCACGTGTAAGG", "relative binding free energy": -0.04}, {"sequence": "GTTGGCACGTGTTAAC", "relative binding free energy": 0.15}, {"sequence": "GCCGTCACGTGTGTGT", "relative binding free energy": 0.21}, {"sequence": "CGCGTCACGTGGAGGG", "relative binding free energy": 0.02}, {"sequence": "TGTCTCACGTGGTTAA", "relative binding free energy": 0.31}, {"sequence": "GTAATCACGTGAGGTA", "relative binding free energy": 0.42}, {"sequence": "CAAAGCACGTGGGGAG", "relative binding free energy": -0.11}, {"sequence": "GATGACACGTGCGGTG", "relative binding free energy": -0.06}, {"sequence": "GTGAACACGTGTTATA", "relative binding free energy": 0.07}, {"sequence": "GGCTTCACGTGTGTGT", "relative binding free energy": 0.24}, {"sequence": "TGTTTCACGTGATAGT", "relative binding free energy": 0.29}, {"sequence": "TCTCGCACGTGGGTGG", "relative binding free energy": -0.18}, {"sequence": "ATAGTCACGTGCGTGT", "relative binding free energy": -0.14}, {"sequence": "AGGATCACGTGGCGTA", "relative binding free energy": -0.04}, {"sequence": "CTGGGCACGTGTAAGG", "relative binding free energy": -0.08}, {"sequence": "GGGTGCACGTGTCGAT", "relative binding free energy": -0.03}, {"sequence": "CTAAGCACGTGTGGTG", "relative binding free energy": -0.06}, {"sequence": "GAGTTCACGTGTTTGA", "relative binding free energy": 0.32}, {"sequence": "TTGGGCACGTGGAAAT", "relative binding free energy": 0.04}, {"sequence": "TTTGACACGTGGGCGC", "relative binding free energy": -0.23}, {"sequence": "ACGGTCACGTGGATGT", "relative binding free energy": 0}, {"sequence": "GTGTACACGTGTGGAA", "relative binding free energy": -0.01}, {"sequence": "TGATACACGTGTTGGA", "relative binding free energy": -0.03}, {"sequence": "TTAATCACGTGGAGGA", "relative binding free energy": 0.01}, {"sequence": "ATGGCCACGTGTGCGG", "relative binding free energy": -0.21}, {"sequence": "TAAGGCACGTGCGTTG", "relative binding free energy": -0.11}, {"sequence": "TTTAACACGTGCTTGA", "relative binding free energy": 0.08}, {"sequence": "GTTGTCACGTGTCCTG", "relative binding free energy": 0.06}, {"sequence": "CATAACACGTGTGGGG", "relative binding free energy": 0.03}, {"sequence": "CAGGTCACGTGTGTAT", "relative binding free energy": 0.3}, {"sequence": "TTTGTCACGTGATCTG", "relative binding free energy": 0.21}, {"sequence": "TAGTTCACGTGGTGAT", "relative binding free energy": 0.34}, {"sequence": "GTCGTCACGTGGGTGC", "relative binding free energy": 0.06}, {"sequence": "AGTGGCACGTGGCAGG", "relative binding free energy": -0.1}, {"sequence": "TTTGCCACGTGTGTAC", "relative binding free energy": 0.04}, {"sequence": "AGTGTCACGTGAATGA", "relative binding free energy": 0.12}, {"sequence": "ATGGGCACGTGGTGGC", "relative binding free energy": -0.11}, {"sequence": "TTGATCACGTGTAGGA", "relative binding free energy": 0.12}, {"sequence": "ATAGTCACGTGGATCG", "relative binding free energy": 0.1}, {"sequence": "TGAGACACGTGTGGGC", "relative binding free energy": 0.19}, {"sequence": "GAGTGCACGTGGTTCT", "relative binding free energy": -0.02}, {"sequence": "TGTTTCACGTGAGGTA", "relative binding free energy": 0.41}, {"sequence": "GTAGTCACGTGGAAGG", "relative binding free energy": 0.1}, {"sequence": "TGGTACACGTGGAAAG", "relative binding free energy": 0.04}, {"sequence": "GTTAACACGTGATTTT", "relative binding free energy": 0.13}, {"sequence": "GCAGGCACGTGGCGTG", "relative binding free energy": -0.26}, {"sequence": "AAGGTCACGTGGATGC", "relative binding free energy": 0.19}]}]}
